Measurements reported in publication PMC7819943, “Rice protein-binding microarrays: a tool to detect cis-acting elements near promoter regions in rice”.
The list shows a part of the results.

Target: T1, OsWOX13 (Oryza sativa, UniProt Q5QMM3 1-267)
T1 sequence: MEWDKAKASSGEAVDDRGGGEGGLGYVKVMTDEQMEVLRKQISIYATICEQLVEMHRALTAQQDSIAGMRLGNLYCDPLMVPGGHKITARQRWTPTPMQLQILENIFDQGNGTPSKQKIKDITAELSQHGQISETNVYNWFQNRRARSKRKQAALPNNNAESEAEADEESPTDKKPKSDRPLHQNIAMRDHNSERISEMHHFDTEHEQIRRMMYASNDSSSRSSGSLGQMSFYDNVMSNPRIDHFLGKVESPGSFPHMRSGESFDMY
Assay: protein-binding microarray (RPBM); PBS, 2% BSA, 51.3 ng/ul salmon testes DNA, 50 uM zinc acetate, 200 nM TF, 25 C, 1 h; high values mean tight binding
Conditions: protein: recombinant; tags: N-terminal polyhistidine and DsRed monomer fusion (pET32a); label: CyDye5-dUTP incorporated in the synthesized complementary strand; 3' TTTTT single-stranded linker to array surface; dsDNA, one strand shown
How it was run: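 Ni–NTA purification followed expression in E. coli BL21-CodonPlus of transcription factors fused N-terminally to a polyhistidine tag and DsRed. At 200 nM in PBS with 2% BSA, salmon testes DNA and 50 µM zinc acetate, the protein was incubated for 1 h at 25 °C with a custom Agilent array that had been primer-extended with Cy5-dUTP and blocked with 2% BSA. After washing, the array was read on an Axon 4000B scanner. The binding signal is per-feature fluorescence intensity in arbitrary units.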

First: GGAGCAATTAGGATTAAAAGATATGTCTCGTAAATTAGTCCGGAGTCACCTAGTGCAG
Second: ATAGGACCTGATTGAGGGAGTATAAGATTCTGAGAATCAGCGGAGTCACCTAGTGCAG
The binding signal of the first is lower: 6420 fluorescence intensity (a.u.) for the first, 16300 fluorescence intensity (a.u.) for the second.

First: ATGAGTCGTGATTTGTTATACTCTAGTACCGAATAGGAGTCGGAGTCACCTAGTGCAG
Second: AAGATTACCCTAATTTGACAAGTTCATCCCATAAAACATTCGGAGTCACCTAGTGCAG
The binding signal of the first is higher: 10200 fluorescence intensity (a.u.) for the first, 9140 fluorescence intensity (a.u.) for the second.

First: GTTCCTCTGATTGGGGAGGCTGGGGCACTGAAAAGGCGAACGGAGTCACCTAGTGCAG
Second: GTTTATAGACAGATGATGATACTGTATATTCTCAAGGGCGCGGAGTCACCTAGTGCAG
The binding signal of the first is higher: 30700 fluorescence intensity (a.u.) for the first, 16300 fluorescence intensity (a.u.) for the second.

First: AATTCAATTACTATGGTTTCCAAGTAATACTGGCCCAGCACGGAGTCACCTAGTGCAG
Second: TGTAAATTTTGTTCTGCAAATGAATCGGGTCATGTCTTTCCGGAGTCACCTAGTGCAG
The binding signal of the first is higher: 14500 fluorescence intensity (a.u.) for the first, 5440 fluorescence intensity (a.u.) for the second.

Compared with “TGCTTTGACAATGTAATTTATCCCTTTCTTCTTGCATAGACGGAGTCACCTAGTGCAG”, “ACGAACATTAATTATTCTATCATCATATGCATATGTATGTCGGAGTCACCTAGTGCAG” is higher in binding signal: 5360 fluorescence intensity (a.u.) for the first, 23600 fluorescence intensity (a.u.) for the second.

Going from “ACACTATTAATTGTTTTATTAGGTTTCAGACGTTATTTTGCGGAGTCACCTAGTGCAG” to “TAATTAATTAATTAACTAATGAGAAATTAATGGAGGACAACGGAGTCACCTAGTGCAG”, the binding signal rises from 19100 fluorescence intensity (a.u.) to 49000 fluorescence intensity (a.u.).

First: TGTAATAATTAAATCTTAATTAATCATATGTTAACGTCATCGGAGTCACCTAGTGCAG
Second: GATAACAAAACGGAAGATTGGTAGGAGTAATAATAAAATGCGGAGTCACCTAGTGCAG
The binding signal of the first is higher: 44200 fluorescence intensity (a.u.) for the first, 7550 fluorescence intensity (a.u.) for the second.

First: TGTGCTAATTGTATACGGAGTAATCCCTCCGATCTGATAACGGAGTCACCTAGTGCAG
Second: AAATAAATTTGATCCATTCCATAATAATAAATCTACACATCGGAGTCACCTAGTGCAG
The binding signal of the first is higher: 10300 fluorescence intensity (a.u.) for the first, 9800 fluorescence intensity (a.u.) for the second.

Compared with “TATTAGTTAATTGGTTCACTGACACTATACTAGTAATATTCGGAGTCACCTAGTGCAG”, “ACATCACCAATTATTATAAAGGTTTATTTGGGTCAACGGACGGAGTCACCTAGTGCAG” is lower in binding signal: 22500 fluorescence intensity (a.u.) for the first, 3660 fluorescence intensity (a.u.) for the second.

First: AACATAAATGACAAATTCAAATTGTAAATATTGCACTATTCGGAGTCACCTAGTGCAG
Second: ACAAATTAAGATTGATAGAAAATGATGTGATTGATTAAGCCGGAGTCACCTAGTGCAG
The binding signal of the first is lower: 14500 fluorescence intensity (a.u.) for the first, 42500 fluorescence intensity (a.u.) for the second.

First: TGTTACTAATTTATTTGGAGGCTTCATGGTTGACCTATTGCGGAGTCACCTAGTGCAG
Second: TATTAATTACAGATTGACAAAACACAAGATTTGCCTGTATCGGAGTCACCTAGTGCAG
The binding signal of the first is lower: 3440 fluorescence intensity (a.u.) for the first, 61800 fluorescence intensity (a.u.) for the second.

First: CCACCGGGAGCCAATCACGCGCGGCCGCGTGTACACACCCCGGAGTCACCTAGTGCAG
Second: ACCCATAATCATGTAATATTTTACATGCACCTTAAGCACACGGAGTCACCTAGTGCAG
The binding signal of the first is lower: 5930 fluorescence intensity (a.u.) for the first, 6080 fluorescence intensity (a.u.) for the second.

First: TGAGAACATGATTAATTTGCAAGAGGGAAATACAGTACATCGGAGTCACCTAGTGCAG
Second: GGTGAGATTATACCACTTGATAGCACAATTGGAAGGAGCACGGAGTCACCTAGTGCAG
The binding signal of the first is higher: 8520 fluorescence intensity (a.u.) for the first, 5070 fluorescence intensity (a.u.) for the second.

First: ATAATTAATCCATAATTAGCAAAGGTTTGCAGTAGCATCACGGAGTCACCTAGTGCAG
Second: ATCGTGACATCAAATCTAGCAATATCCTTCTTGACCAGCACGGAGTCACCTAGTGCAG
The binding signal of the first is higher: 27800 fluorescence intensity (a.u.) for the first, 3210 fluorescence intensity (a.u.) for the second.

First: TTATAATAATTGTATTTCTACCATTTAAATTTTATATAAACGGAGTCACCTAGTGCAG
Second: TAGTCTAGATTTAATCTCAATTGCCAATTATGACCTACCGCGGAGTCACCTAGTGCAG
The binding signal of the first is lower: 5030 fluorescence intensity (a.u.) for the first, 20500 fluorescence intensity (a.u.) for the second.

Going from “ATTAAACAATTAATTTCTCCGATGGTTCCATGTTAGGACGCGGAGTCACCTAGTGCAG” to “TACTAGCTGATTTTGTCATTACCTTTTGGCCGTATTCGCCCGGAGTCACCTAGTGCAG”, the binding signal falls from 30100 fluorescence intensity (a.u.) to 3810 fluorescence intensity (a.u.).

Compared with “TGCTAATGGACTTATTACTTTTGCTTGCTTTAATTTTGCCCGGAGTCACCTAGTGCAG”, “TCATGTTTATCAATTTATGCGTGATCGAAATCCTGGATGACGGAGTCACCTAGTGCAG” is lower in binding signal: 14600 fluorescence intensity (a.u.) for the first, 11000 fluorescence intensity (a.u.) for the second.

Going from “CTATATGACTGGTATTGTGGTTCAGAAAGGAAGTTCGGACCGGAGTCACCTAGTGCAG” to “AAGCCTAATTAGTCTATAATTAGCCATAAGTATTACAGTACGGAGTCACCTAGTGCAG”, the binding signal rises from 6220 fluorescence intensity (a.u.) to 26200 fluorescence intensity (a.u.).

Compared with “ATAATGCGTTGATGTGCAATCAGCGATCTTGTACTTCTTACGGAGTCACCTAGTGCAG”, “ACCAGCAATTAGATTAGAAGTTCAGAACCGGTATCCTAAACGGAGTCACCTAGTGCAG” is lower in binding signal: 9360 fluorescence intensity (a.u.) for the first, 4970 fluorescence intensity (a.u.) for the second.

Compared with “AATAACAGGTTAATTCTAAACGGCATTCGCATCATTGTCTCGGAGTCACCTAGTGCAG”, “TAAAATTAACATGGTATCACCTGTGTGACAATATATATCGCGGAGTCACCTAGTGCAG” is higher in binding signal: 5800 fluorescence intensity (a.u.) for the first, 18600 fluorescence intensity (a.u.) for the second.

First: ACCTTTTCCCATCCCCTTTCCCTCGTTTTCCGCGTGCACGCGGAGTCACCTAGTGCAG
Second: ATAGATAAACTAATTTATATATTTATATAGTCTTATAAACCGGAGTCACCTAGTGCAG
The binding signal of the first is lower: 4510 fluorescence intensity (a.u.) for the first, 7340 fluorescence intensity (a.u.) for the second.

Compared with “CATTATTATTTTCTCTGTCAATATTTGATTCTAACCGATCCGGAGTCACCTAGTGCAG”, “CTTCCAACAGATTAATCACCACCAATCGGTGAAAAGAGAACGGAGTCACCTAGTGCAG” is higher in binding signal: 3460 fluorescence intensity (a.u.) for the first, 5340 fluorescence intensity (a.u.) for the second.

Compared with “GCCGTAATTTCACCTTTCGCCACGCCGTACCCACAGCAAGCGGAGTCACCTAGTGCAG”, “TCCGTATAATTTGCATTGAGATCCGAGGTTTAATCTAGATCGGAGTCACCTAGTGCAG” is higher in binding signal: 5260 fluorescence intensity (a.u.) for the first, 7270 fluorescence intensity (a.u.) for the second.

Compared with “AATGTCTAATCAAGTAATCATCATGTGGTCAATTATCACACGGAGTCACCTAGTGCAG”, “ATATATATATATATATATATATATATTTTAGGACTGGCTGCGGAGTCACCTAGTGCAG” is higher in binding signal: 15700 fluorescence intensity (a.u.) for the first, 22300 fluorescence intensity (a.u.) for the second.

Compared with “GCTCCGTCACTGTCAATAATCTGTTTCAAATTCAGTCTAACGGAGTCACCTAGTGCAG”, “TTATTAATTCCATAATCAGAACTTTGATGTGATATAACCTCGGAGTCACCTAGTGCAG” is lower in binding signal: 10100 fluorescence intensity (a.u.) for the first, 9130 fluorescence intensity (a.u.) for the second.

Going from “TTCCTTTTGATTGTTGAATTATATATGTGCTTCGATACATCGGAGTCACCTAGTGCAG” to “AATAATTGGTATTTGAACGTACCAAATTAATTGAGCAATTCGGAGTCACCTAGTGCAG”, the binding signal rises from 29500 fluorescence intensity (a.u.) to 33700 fluorescence intensity (a.u.).

First: GGGATTGGCTGGAGGGGTGATGTGAGGGTTTTGGTCGAAGCGGAGTCACCTAGTGCAG
Second: CGCGATACGTGATTGAAATCGTCTGATACCTGACAGGTTTCGGAGTCACCTAGTGCAG
The binding signal of the first is lower: 14200 fluorescence intensity (a.u.) for the first, 42200 fluorescence intensity (a.u.) for the second.
